From the BET-seq Pho4 binding data (Le et al. 2018) come the findings set out here.

Some of the results follow. The energies were worked out here from pooled read counts, against the library average; single values are noisy.

The target in the assay is T1, Pho4 (S. cerevisiae) (UniProt P07270).
T1 sequence: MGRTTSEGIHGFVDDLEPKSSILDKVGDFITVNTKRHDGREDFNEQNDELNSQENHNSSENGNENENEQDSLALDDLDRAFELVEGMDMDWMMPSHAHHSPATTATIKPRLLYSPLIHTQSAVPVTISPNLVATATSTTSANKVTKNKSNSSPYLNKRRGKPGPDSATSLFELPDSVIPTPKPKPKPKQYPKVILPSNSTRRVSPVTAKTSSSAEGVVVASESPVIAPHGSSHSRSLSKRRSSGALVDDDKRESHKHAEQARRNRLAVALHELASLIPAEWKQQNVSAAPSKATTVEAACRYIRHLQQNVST
Kind of assay: relative binding free energy (BET-seq); higher = weaker binding. Particulars: reference: library average.
As for TGAGTCACGTGAGGAA, the “relative binding free energy” value came to 0.1 kcal/mol.

For GTCTGCACGTGTTGCG, the “relative binding free energy” value is 0.12 kcal/mol.

In the case of GGATACACGTGTCGTG, the “relative binding free energy” value was found to be 0.07 kcal/mol. To ACGGTCACGTGGTGTT belongs 0.14 kcal/mol; to AATTTCACGTGAGGGC, 0.29 kcal/mol. To TAAGGCACGTGTCATG belongs -0.03 kcal/mol; to ATAGACACGTGCTGTT, -0.08 kcal/mol; to ACGGTCACGTGGCTGG, -0.01 kcal/mol. Turning to AAGCTCACGTGTGGTT, the “relative binding free energy” value worked out at 0.17 kcal/mol. To TTATACACGTGTAGAT belongs 0.15 kcal/mol; to AGGCGCACGTGGACGG, -0.15 kcal/mol; to TAGGACACGTGGTAAT, -0.07 kcal/mol.

AAACTCACGTGGGTTT: the “relative binding free energy” value came out at 0.08 kcal/mol. To GAACGCACGTGGGTTT belongs 0.01 kcal/mol; to AGTGGCACGTGTGCGC, -0.1 kcal/mol; to ATGCTCACGTGATTTG, 0.32 kcal/mol. To TTGGTCACGTGTAGTG belongs 0.25 kcal/mol. In the case of CTGGTCACGTGCTTAT, the “relative binding free energy” value is 0.11 kcal/mol. Consider GGAGCCACGTGGGAGT, for which the “relative binding free energy” value was -0.07 kcal/mol. For AGAGGCACGTGGTGAA, the “relative binding free energy” value is -0.2 kcal/mol. To TTTTTCACGTGTAATG belongs 0.25 kcal/mol; to TGTTGCACGTGCGCAT, -0.24 kcal/mol; to AGTGTCACGTGAATGT, 0.23 kcal/mol. To CGGGGCACGTGTTTGA belongs -0.15 kcal/mol; to GTGTTCACGTGGTCAT, 0.18 kcal/mol. For TTAAGCACGTGCGGCT, the “relative binding free energy” value was -0.14 kcal/mol. TGTGACACGTGTACGT: the “relative binding free energy” value is -0.01 kcal/mol.

For TTAAACACGTGGTTTT, the “relative binding free energy” value was -0.19 kcal/mol. As to CATGGCACGTGGGAAG, the “relative binding free energy” value was -0.17 kcal/mol.

Regarding ATCTTCACGTGGTAGT, the “relative binding free energy” value was determined as 0.21 kcal/mol. Regarding TGTTTCACGTGCTTTT, the “relative binding free energy” value is 0.29 kcal/mol.

With TCCGTCACGTGTATGT, the “relative binding free energy” value came out at 0.11 kcal/mol. For the sequence GCTTTCACGTGGCGGA, the “relative binding free energy” value came to 0.37 kcal/mol.

Regarding AGTTGCACGTGCGCGG, the “relative binding free energy” value is -0.1 kcal/mol. To ATTCGCACGTGAGTTT belongs 0.13 kcal/mol; to CTATTCACGTGAGTTG, 0.56 kcal/mol. To AGTGGCACGTGGCTTC belongs -0.15 kcal/mol. To GGTGACACGTGGGGAA belongs 0.04 kcal/mol; to CCCGTCACGTGGGGGG, -0.14 kcal/mol. Regarding TGTTTCACGTGGCATT, the “relative binding free energy” value was 0.17 kcal/mol. For the sequence TCGGTCACGTGTGAGG, the “relative binding free energy” value came to 0.09 kcal/mol. To GGTATCACGTGGATAT belongs 0.27 kcal/mol; to TCGTGCACGTGATATT, 0.03 kcal/mol; to TTATACACGTGTAGGC, 0.19 kcal/mol. On to GTTTACACGTGTCTGT, for which the “relative binding free energy” value was determined as 0.13 kcal/mol. To AAATTCACGTGGCGGG belongs 0.27 kcal/mol; to TTTGGCACGTGAGTGA, 0.06 kcal/mol. For the sequence GGTAGCACGTGCAGGC, the “relative binding free energy” value was -0.07 kcal/mol. To GAGAGCACGTGGGTCG belongs -0.21 kcal/mol; to TTAACCACGTGTATGT, -0.1 kcal/mol; to ATGGGCACGTGATCGC, 0 kcal/mol.

As for AGGGTCACGTGGACGT, the “relative binding free energy” value came to 0.16 kcal/mol. Turning to ATGATCACGTGATATG, the “relative binding free energy” value turned out to be 0.28 kcal/mol. As to GAATGCACGTGCGGGT, the “relative binding free energy” value came out at 0.09 kcal/mol. To TTTCCCACGTGTGTGG belongs -0.11 kcal/mol. GTTTCCACGTGAGAGG: the “relative binding free energy” value came out at 0.25 kcal/mol.

As to GTTGTCACGTGGAAGG, the “relative binding free energy” value worked out at 0.17 kcal/mol.

On to AAGTGCACGTGTTTTG, for which the “relative binding free energy” value worked out at 0.01 kcal/mol. To GGAGGCACGTGGAGGT belongs 0.03 kcal/mol. To TTACACACGTGTGGTG belongs 0 kcal/mol; to TCGATCACGTGGTGCT, 0.06 kcal/mol; to GATAGCACGTGGGGAT, -0.06 kcal/mol. To AAGGTCACGTGGGGGG belongs -0.08 kcal/mol; to AGAAGCACGTGGGCTG, -0.19 kcal/mol. As for TGTGCCACGTGGGGAA, the “relative binding free energy” value is -0.29 kcal/mol. On to GGTTACACGTGGTGCT, for which the “relative binding free energy” value came to 0.08 kcal/mol. For ATGTTCACGTGTAATA, the “relative binding free energy” value came out at 0.24 kcal/mol.

Consider GGCCACACGTGGTGGT, for which the “relative binding free energy” value was -0.01 kcal/mol. As for CAATTCACGTGATGGG, the “relative binding free energy” value came out at 0.36 kcal/mol. To ATTATCACGTGGTAAT belongs 0.13 kcal/mol; to GTTGTCACGTGCTTTA, 0.13 kcal/mol; to AGGACCACGTGGTGTG, -0.16 kcal/mol. In the case of AGTGACACGTGGTTCT, the “relative binding free energy” value was -0.04 kcal/mol. As for TCGTGCACGTGTTGTA, the “relative binding free energy” value is -0.13 kcal/mol. Turning to GTGATCACGTGTGCTT, the “relative binding free energy” value worked out at 0.07 kcal/mol. To GTGATCACGTGAGGCA belongs 0.24 kcal/mol; to CGTGGCACGTGAGCTG, 0.14 kcal/mol; to TAAATCACGTGTGTTG, 0.2 kcal/mol. To GTGGCCACGTGAGGCG belongs 0.12 kcal/mol. As to TTAGGCACGTGCCTTT, the “relative binding free energy” value is -0.05 kcal/mol.

Consider GCTTTCACGTGTTGCG, for which the “relative binding free energy” value turned out to be 0.4 kcal/mol.

As for ATGTACACGTGCTGAG, the “relative binding free energy” value is 0.07 kcal/mol. With TGAATCACGTGGTGTT, the “relative binding free energy” value was 0.12 kcal/mol.

Turning to GGGGTCACGTGCGTGG, the “relative binding free energy” value was determined as 0.1 kcal/mol.

Take TGTAGCACGTGGAGCA: the “relative binding free energy” value was -0.1 kcal/mol. To GACTTCACGTGTATTG belongs 0.22 kcal/mol; to AGAGCCACGTGGTGTG, -0.29 kcal/mol.

Take ATTTGCACGTGATTTA: the “relative binding free energy” value came out at 0.12 kcal/mol.

Turning to GTATACACGTGGCAGG, the “relative binding free energy” value is -0.03 kcal/mol. Turning to AGTGTCACGTGCGTGT, the “relative binding free energy” value was -0.07 kcal/mol.

With GGAGTCACGTGTATGT, the “relative binding free energy” value stood at 0.18 kcal/mol. Regarding TGGTTCACGTGTTTCA, the “relative binding free energy” value is 0.15 kcal/mol. To TCTTACACGTGATGGC belongs 0.45 kcal/mol; to GTGTACACGTGGCGTT, -0.08 kcal/mol; to GTTAACACGTGGGTAA, -0.05 kcal/mol. To TATATCACGTGCTTGT belongs -0.15 kcal/mol; to TGATTCACGTGCTTGA, 0.24 kcal/mol; to GGTCGCACGTGGGTGT, -0.14 kcal/mol. Regarding CGTGGCACGTGACGGT, the “relative binding free energy” value was -0.05 kcal/mol. To CGTGACACGTGATATG belongs 0.05 kcal/mol; to GAATTCACGTGGATGG, 0.37 kcal/mol. With GTGGCCACGTGCGGTG, the “relative binding free energy” value was -0.04 kcal/mol. Turning to AAAGTCACGTGGGAAG, the “relative binding free energy” value was determined as 0.08 kcal/mol. Turning to TTTTTCACGTGGGGTC, the “relative binding free energy” value was 0.28 kcal/mol.

Regarding GTATGCACGTGCTGTT, the “relative binding free energy” value is -0.05 kcal/mol. For TGATTCACGTGGGCTT, the “relative binding free energy” value was 0.19 kcal/mol. To GGTGTCACGTGTTCAG belongs 0.08 kcal/mol; to TTTGGCACGTGGGTGT, -0.2 kcal/mol.

As for TCGGGCACGTGTGGCG, the “relative binding free energy” value is -0.12 kcal/mol. AAAATCACGTGTTGTA: the “relative binding free energy” value is 0.06 kcal/mol. To GTAAGCACGTGGCTCG belongs 0.07 kcal/mol; to TGGCACACGTGGCGGG, 0.03 kcal/mol. GAATACACGTGTTTGG: the “relative binding free energy” value came out at 0.12 kcal/mol. To GTGTTCACGTGTATCG belongs 0.38 kcal/mol; to AGGTACACGTGACAGT, 0.18 kcal/mol.
